A collection of fitness landscapes (doi:10.1016/j.celrep.2020.107928)
The full ranking holds about 81,000 sequences; the median of “one-hybrid fitness for binding parS DNA” is about -0.17, and the highest 2% start at about 0.51. This is one part of the list.

B1: Caulobacter ParB omega fusion; a variant is named by its letters at X, in order, B8GW30 (parent)
chain: MESVVVGEPGMSEGRRGLGRGLSALLGEVDAAPAQAPGEQLGGSREAPIEILQRNPDQPRRTFREEDLEDLSNSIREKGVLQPILVRPSPDTAGEYQIVAGERAWRAAQRAGLKTVPIMVRELDDLAVLEIGIIENVQRADLNVLEEALSYKVLMEKFERTQENIAQTIGKSXSHVANXMRLLXLPDEVQSYLVSGELTAXHARAIAAAADPVALAKQIIEGGLSVRETEALARKAPNLSAGKSKGGRPPRVKDTDTQALESDLSSVLGLDVSIDHRGSTGTLTITYATLEQLDDLCNRLTRGI

Variants of: B1
Assay: one-hybrid fitness for binding parS DNA (scaled: cognate 1, non-cognate 0); higher = stronger binding
Conditions: with parS DNA site
Procedure, shortened: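 Values were rescaled so that cognate is 1 and non-cognate is 0. Each is a fitness, the log change in a variant's read ratio to wild type from Illumina reads of plasmids before and after selection, with three replicate libraries pooled and variants under 10 reads dropped. Selection of the Caulobacter ParB libraries, four specificity codons randomised, used E. coli USO with a HIS3 reporter, site 19 bp from the promoter, on M9-minus-histidine with 0.1 mM IPTG and 5 mM 3-AT for 48 hours at 37°C.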

| Variant | one-hybrid fitness for binding parS DNA |
| --- | --- |
| QMMT | ≤ 0.2 |
| ANPF | ≤ 0.2 |
| YCWG | ≤ 0.2 |
| AAQC | ≤ 0.2 |
| AQQL | ≤ 0.2 |
| PRWT | ≤ 0.2 |
| MRHG | ≤ 0.2 |
| VCSH | ≤ 0.2 |
| KARS | ≤ 0.2 |
| MWYC | ≤ 0.2 |
| RDIW | ≤ 0.2 |
| KIPN | ≤ 0.2 |
| PKEC | ≤ 0.2 |
| RCWY | 0.513 |
| CDTF | ≤ 0.2 |
| LLAW | ≤ 0.2 |
| GCTP | ≤ 0.2 |
| GKLG | ≤ 0.2 |
| PDQR | ≤ 0.2 |
| DLNS | ≤ 0.2 |
| RICG | 0.976 |
| IVTR | ≤ 0.2 |
| YPHH | ≤ 0.2 |
| IFRT | ≤ 0.2 |
| NAWS | ≤ 0.2 |
| CRKL | ≤ 0.2 |

| Variant | one-hybrid fitness for binding parS DNA |
| --- | --- |
| SRVG | ≤ 0.2 |
| ITRY | ≤ 0.2 |
| KSHV | ≤ 0.2 |
| RQHI | ≤ 0.2 |
| ISYR | ≤ 0.2 |
| CYLL | ≤ 0.2 |
| PEKV | ≤ 0.2 |
| YNNH | ≤ 0.2 |
| SVQR | ≤ 0.2 |
| ITAL | ≤ 0.2 |
| CRPK | ≤ 0.2 |
| MIVW | ≤ 0.2 |
| TTKF | ≤ 0.2 |
| RRGA | 0.749 |
| IAPT | ≤ 0.2 |
| SQNG | ≤ 0.2 |
| QYTT | ≤ 0.2 |
| FLLM | ≤ 0.2 |
| AWHR | ≤ 0.2 |
| DTFR | ≤ 0.2 |
| QKNR | ≤ 0.2 |
| TLYC | ≤ 0.2 |
| QDNS | ≤ 0.2 |
| LYAT | ≤ 0.2 |
| QETH | ≤ 0.2 |
| DPNF | ≤ 0.2 |

| Variant | one-hybrid fitness for binding parS DNA |
| --- | --- |
| SHPW | ≤ 0.2 |
| DGVI | ≤ 0.2 |
| QPYL | ≤ 0.2 |
| TEVL | ≤ 0.2 |
| LFTI | ≤ 0.2 |
| RWHQ | ≤ 0.2 |
| ENGR | ≤ 0.2 |
| NSKG | ≤ 0.2 |
| RTTF | 0.253 |
| YVWI | ≤ 0.2 |
| QNDR | ≤ 0.2 |
| TEYF | ≤ 0.2 |
| DCRN | ≤ 0.2 |
| WAAG | ≤ 0.2 |
| LPSS | ≤ 0.2 |
| WWPY | ≤ 0.2 |
| HLTW | ≤ 0.2 |
| HGLE | ≤ 0.2 |
| WCKY | ≤ 0.2 |
| HRLR | ≤ 0.2 |
| PDKG | ≤ 0.2 |
| TDAY | ≤ 0.2 |
| PTCG | ≤ 0.2 |
| EYGF | ≤ 0.2 |
| IDNA | ≤ 0.2 |
| LGTG | ≤ 0.2 |

| Variant | one-hybrid fitness for binding parS DNA |
| --- | --- |
| RKHD | ≤ 0.2 |
| KFNS | ≤ 0.2 |
| LIDR | ≤ 0.2 |
| VQCG | ≤ 0.2 |
| HYST | ≤ 0.2 |
| TWLR | ≤ 0.2 |
| SNCS | ≤ 0.2 |
| WKSM | ≤ 0.2 |
| TTKA | ≤ 0.2 |
| KSHG | ≤ 0.2 |
| VTFG | ≤ 0.2 |
| TEPS | ≤ 0.2 |
| PCMT | ≤ 0.2 |
| RQIY | 0.256 |
| HSDC | ≤ 0.2 |
| RPQN | ≤ 0.2 |
| TASW | ≤ 0.2 |
| LMNP | ≤ 0.2 |
| YKHS | ≤ 0.2 |
| LWHN | ≤ 0.2 |
| GQPL | ≤ 0.2 |
| NKTF | ≤ 0.2 |
| ANDS | ≤ 0.2 |
| KVQS | ≤ 0.2 |
| GMHD | ≤ 0.2 |
| SRLL | ≤ 0.2 |

| Variant | one-hybrid fitness for binding parS DNA |
| --- | --- |
| VQDR | ≤ 0.2 |
| CQLR | ≤ 0.2 |
| SGAL | ≤ 0.2 |
| RKEV | ≤ 0.2 |
| SKMQ | ≤ 0.2 |
| MWNS | ≤ 0.2 |
| GHYT | ≤ 0.2 |
| RPVQ | ≤ 0.2 |
| ITMC | ≤ 0.2 |
| APWE | ≤ 0.2 |
| KCMT | ≤ 0.2 |
| EIIG | ≤ 0.2 |
| ETSA | ≤ 0.2 |
| SKYD | ≤ 0.2 |
| SFQG | ≤ 0.2 |
| IAPE | ≤ 0.2 |
| VFSN | ≤ 0.2 |
| FYNG | ≤ 0.2 |
| RTII | ≤ 0.2 |
| HALL | ≤ 0.2 |
| DSHC | ≤ 0.2 |
| GWGD | ≤ 0.2 |
| TVNP | ≤ 0.2 |
| IHNC | ≤ 0.2 |
| SHMI | ≤ 0.2 |
| ALLY | ≤ 0.2 |

| Variant | one-hybrid fitness for binding parS DNA |
| --- | --- |
| GFLW | ≤ 0.2 |
| RPVM | ≤ 0.2 |
| ATMF | ≤ 0.2 |
| GKSY | ≤ 0.2 |
| TASL | ≤ 0.2 |
| QMMY | ≤ 0.2 |
| TRQT | ≤ 0.2 |
| SSDS | ≤ 0.2 |
| CVGK | ≤ 0.2 |
| GSLD | ≤ 0.2 |
| AMWC | ≤ 0.2 |
| THEY | ≤ 0.2 |
| VSRW | ≤ 0.2 |
| ASTS | ≤ 0.2 |
| FMNG | ≤ 0.2 |
| PWTW | ≤ 0.2 |
| LGLR | ≤ 0.2 |
| WVNC | ≤ 0.2 |
| TWES | ≤ 0.2 |
| MKAC | ≤ 0.2 |
| LITQ | ≤ 0.2 |
| QDTK | ≤ 0.2 |
| TPFC | ≤ 0.2 |
